# Reference: publication PMC4336329 (PLoS ONE, 2015)
# Hit rate of the full screen: of about 310,000 compounds, about 2,200 (0.71%) showed an effect of 50% or more. Effects have a minus sign here. Some of the results follow.
# Molecular target: human ether-à-go-go-related gene (hERG) potassium channel (human, UniProt Q12809)
# Assay: primary screen, population patch clamp on CHO cells stably expressing hERG
# Sequence of human ether-à-go-go-related gene (hERG) potassium channel (Q12809 whole entry, looked up): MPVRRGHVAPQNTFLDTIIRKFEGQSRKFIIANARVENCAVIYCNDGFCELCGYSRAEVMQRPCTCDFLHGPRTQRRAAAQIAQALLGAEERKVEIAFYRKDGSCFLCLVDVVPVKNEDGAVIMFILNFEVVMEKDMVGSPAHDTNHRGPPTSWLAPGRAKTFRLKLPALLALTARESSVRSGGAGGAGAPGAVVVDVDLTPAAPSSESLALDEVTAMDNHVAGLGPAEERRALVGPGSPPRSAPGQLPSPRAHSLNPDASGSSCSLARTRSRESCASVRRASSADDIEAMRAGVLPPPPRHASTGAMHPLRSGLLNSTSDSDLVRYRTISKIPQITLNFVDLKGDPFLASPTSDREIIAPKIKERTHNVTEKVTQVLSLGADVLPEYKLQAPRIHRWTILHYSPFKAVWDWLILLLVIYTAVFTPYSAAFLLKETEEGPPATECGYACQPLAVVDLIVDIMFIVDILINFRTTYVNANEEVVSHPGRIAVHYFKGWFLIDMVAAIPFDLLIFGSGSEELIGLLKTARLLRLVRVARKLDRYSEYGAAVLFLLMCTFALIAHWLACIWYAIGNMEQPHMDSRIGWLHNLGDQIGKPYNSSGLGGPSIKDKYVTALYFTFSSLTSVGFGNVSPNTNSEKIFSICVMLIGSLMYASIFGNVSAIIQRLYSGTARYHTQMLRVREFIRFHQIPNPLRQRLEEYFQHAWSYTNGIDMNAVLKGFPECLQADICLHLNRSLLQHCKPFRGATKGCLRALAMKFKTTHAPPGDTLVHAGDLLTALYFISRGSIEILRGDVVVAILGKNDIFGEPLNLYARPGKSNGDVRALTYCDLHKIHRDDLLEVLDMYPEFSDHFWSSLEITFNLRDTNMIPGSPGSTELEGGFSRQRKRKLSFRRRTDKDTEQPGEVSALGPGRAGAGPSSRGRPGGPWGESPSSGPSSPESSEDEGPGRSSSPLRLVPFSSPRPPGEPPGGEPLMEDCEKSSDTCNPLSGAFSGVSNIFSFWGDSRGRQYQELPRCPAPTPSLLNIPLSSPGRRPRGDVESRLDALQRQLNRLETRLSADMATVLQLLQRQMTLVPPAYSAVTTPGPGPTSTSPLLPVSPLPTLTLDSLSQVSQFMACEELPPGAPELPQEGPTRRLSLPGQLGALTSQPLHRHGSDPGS
row,SMILES,"hERG current change (%, negative = inhibition) at 1uM"
1,O=C(NCc1ccc2c(c1)OCO2)c1ccc(CSCc2ccc(Cl)cc2)o1,4.23%
2,CN(C)c1ccc(CN(C(=O)c2ccccc2Br)C2CCS(=O)(=O)C2)cc1 (stereo not drawn),14.7%
3,CCOc1cccc(C(=O)NC(=S)Nc2ccc(Cl)cc2C(=O)O)c1,14.5%
4,COc1cccc(-c2cccc(NC(=O)C3CCN(Cc4ccon4)CC3)c2)c1,12.8%
5,CCOC(=O)CN(c1ccccc1)S(=O)(=O)c1ccc(F)cc1,14.3%
6,O=C(NNS(=O)(=O)c1ccc(F)cc1)C1CCCCC1,18.5%
7,Cc1ccc(S(=O)(=O)N(CC(=O)NCCSCc2ccco2)c2ccc(F)cc2)cc1,4.21%
8,CCC(C)c1ccc(NC(=O)C2CC2)cc1 (stereo not drawn),5.45%
9,CC1CCCN(S(=O)(=O)c2ccccc2[N+](=O)[O-])C1 (stereo not drawn),3.13%
10,COc1ccc(CN(C)CC(=O)Nc2ccccc2C(F)(F)F)cc1,8.77%
11,COc1ccc(-c2ccc(Nc3ccc(S(=O)(=O)N4CCCC4)cc3)nn2)cc1OC,9.5%
12,COc1ccc(/C=C/c2nc(-c3ccccc3)cc(=O)[nH]2)cc1,3.52%
13,O=c1[nH]c(SCc2ccccc2Cl)nc2[nH]ncc12,8.56%
14,COc1ccc(CCNC(=S)Nc2cccc(C)c2C)cc1,0.5%
15,CC(=O)c1c(NC(=O)C(C)C)nc(C)nc1-c1ccccc1,3.66%
16,Cc1ccccc1N(C(=O)c1ccco1)C(C(=O)NC1CCCC1)c1cccnc1 (stereo not drawn),12.7%
17,CCCN(CC(=O)Nc1ccccc1OC)C(=O)C1=COCCO1,5.06%
18,CCOC(=O)C1CCN(C(=O)CCC(=O)NCCc2ccc(Cl)cc2)CC1,8.31%
19,CCOC(=O)c1cc(-c2ccccc2)sc1NC(=O)C(C)(C)C,9%
20,COc1ccccc1NCC(O)COc1ccc(C(C)(C)C)cc1.O=C(O)C(=O)O (stereo not drawn),14.9%
21,Nc1nc(SCC(=O)N2CCc3ccccc3C2)[nH]c(=O)c1-c1ccccc1,14.8%
22,CCOC(=O)N1CCN(Cc2nc3cc(NC(=O)c4cccs4)ccc3n2C)CC1,-6.08%
23,CCc1ccc(C(=O)CSc2n[nH]c(C)n2)cc1,3.75%

row,SMILES,"hERG current change (%, negative = inhibition) at 1uM"
1,COc1cc(/C=N/Nc2nc3ccccc3s2)ccc1O,3.76%
2,COC(=O)CCCC1=CC2=CC(=O)C(C)(O)C(=O)C2=CO1 (stereo not drawn),6.76%
3,COCCCn1c2nc3ccccc3nc2c2c(=O)n(-c3ccccc3OC)cnc21,9.83%
4,CC(C)Cn1c(N)c(-c2nc(C(C)C)c(C(=O)c3ccccc3F)s2)c(=O)n(C)c1=O,14.8%
5,O=C(CSC1=NCCS1)Nc1ccc(S(=O)(=O)N2CCCCCC2)cc1,11.1%
6,Cc1cnc(NC(=O)CSc2nnc(-c3ccncc3)n2C2CCCCC2)s1,-2.34%
7,N#CCC(=O)N/N=C\c1cccc(OC/C=C/c2ccccc2)c1,11.6%
8,Cn1c(=O)n(CCc2ccccc2)c2ccccc21,11.8%
9,COc1ccc(-n2c(CCC(=O)O)ccc2-c2ccc(F)cc2)c(OC)c1,10.4%
10,COC(=O)CN1C(=O)N/C(=C/c2ccc(OC)cc2)C1=O,5.95%
11,O=C(CN(Cc1ccccc1)S(=O)(=O)c1ccc(Cl)cc1)NCC1CCCO1 (stereo not drawn),3.41%
12,CCc1nccn1CCC(=O)NC1CC(C)(C)Cc2c1cnn2-c1ccc(C)cc1 (stereo not drawn),2.16%
13,C=CCn1c(Cc2cccs2)nnc1SCC(=O)Nc1ccc(C(=O)OCC)cc1,-8.22%
14,CSCCC(NS(=O)(=O)c1ccc(C)c(C(=O)O)c1)C(=O)O (stereo not drawn),10.4%
15,CCOC(=O)N1CCN(CC(=O)c2ccc3c(c2)CCN3C(C)=O)CC1,11.6%
16,CC(=O)c1cccc(N(C(=O)c2ccccn2)C(C(=O)NC2CCCCC2)c2cccs2)c1 (stereo not drawn),5.83%
17,CN(CC1CCN(CCc2cccc(C(F)(F)F)c2)CC1)C(=O)c1ccccc1,-56.1%
18,Cc1ccc(OCCC(=O)NNC(=O)c2cc(C)oc2C)cc1,11.9%
19,O=[N+]([O-])c1ccc(N(c2ccccc2)c2ccccc2)cc1,8.63%
20,O=C(C1CCCN(CCCc2ccccc2)C1)N1CCCCC1 (stereo not drawn),-5.07%
21,CC(SCc1ccccc1)C(=O)NN=C1CCN(C)CC1 (stereo not drawn),4.75%
22,NS(=O)(=O)c1ccc(CCNC(=O)c2cc([N+](=O)[O-])ccc2N2CCCCC2)cc1,1.53%
